Legend:
[1] = target: T1, recombinant human FcγRIIb (R&D Systems) (human, UniProt P31994 46-217, limits assumed); assay: Biacore SPR, Fc fusion captured on protein A, FcγRIIb injected
T1 construct: also called CD32b
T1 sequence (looked up): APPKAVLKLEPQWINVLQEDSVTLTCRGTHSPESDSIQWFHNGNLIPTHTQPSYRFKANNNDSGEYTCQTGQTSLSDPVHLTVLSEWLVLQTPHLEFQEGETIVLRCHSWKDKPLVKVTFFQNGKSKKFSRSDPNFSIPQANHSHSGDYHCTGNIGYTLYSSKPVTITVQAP

[2] = target: T2, human FcγRIIIa, V158 isoform (human, UniProt P08637 part only, limits assumed); assay: Biacore SPR, Fc fusion captured on protein A, V158 FcγRIIIa injected
T2 construct: V158 allotype as printed; also called human V158 FcγRIIIa
T2 sequence (P08637 17-208 F176V limits assumed): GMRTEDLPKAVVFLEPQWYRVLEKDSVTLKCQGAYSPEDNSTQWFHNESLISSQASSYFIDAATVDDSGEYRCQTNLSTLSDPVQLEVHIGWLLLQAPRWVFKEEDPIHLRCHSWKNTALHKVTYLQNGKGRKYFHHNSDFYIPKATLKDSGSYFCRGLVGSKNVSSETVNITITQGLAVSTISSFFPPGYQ

B1: human MOG-Fc fusion, knockout (KO) variant 236R/328R (Fc fusion)
chain: GQFRVIGPRHPIRALVGDEVELPCRISPGKNATGMEVGWYRPPFSRVVHLYRNGKDQDGDQAPEYRGRTELLKDAIGEGKVTLRIRNVRFSDEGGFTCFFRDHSYQEEAAMELKVEDPFYWVSPG[human IgG1 Fc with C220S G236R L328R (EU numbers) not given here]
notes: Negative control; also called Fc(KO); Fc(KO) version
binding result [1]: no binding
binding result [2]: no binding

Source: patent US20110189178A1 (Xencor, published 2011)
